Among all 350,000 compounds or so, about 31,000 (8.9%) were called active. Inconclusive results, whose numbers are uncertain, are shown with a selection of clear calls. Calls follow the shape of the dose curve; as a rule, active = well fitted inhibition curve with a large enough effect; inconclusive = small, poorly fitted or top-dose-only effect; inactive = no such curve, though single readings can be large or run the other way. Potencies beside an inconclusive call are fits to weak or partial responses and may not hold up.
target: Histone-lysine N-methyltransferase EHMT2 (Homo sapiens) (UniProt Q96KQ7); assay: qHTS Assay for Inhibitors of Histone Lysine Methyltransferase G9a; details: G9a H3K9 monomethylation, AlphaScreen, 2 h; activity, negative = inhibition: at 59 µM (top of the series) unless noted; also: nearly all actives have a fitted effect of over 75% in size
Method in brief: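 Methyltransferase reactions run at room temperature for 2 h (20 nM enzyme, 500 nM biotin-H3K9 peptide, 20 uM SAM) after a 15 min compound preincubation; product detected by AlphaScreen beads and anti-H3K9me1 antibody.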
% is scaled to controls: 0 for no effect and ±100 for the full control effect; potency is read from the fitted curve at half-maximal effect; tags tell the direction and shape of the fitted curve.

Sequence of UniProt Q96KQ7 (Q96KQ7 whole entry, looked up): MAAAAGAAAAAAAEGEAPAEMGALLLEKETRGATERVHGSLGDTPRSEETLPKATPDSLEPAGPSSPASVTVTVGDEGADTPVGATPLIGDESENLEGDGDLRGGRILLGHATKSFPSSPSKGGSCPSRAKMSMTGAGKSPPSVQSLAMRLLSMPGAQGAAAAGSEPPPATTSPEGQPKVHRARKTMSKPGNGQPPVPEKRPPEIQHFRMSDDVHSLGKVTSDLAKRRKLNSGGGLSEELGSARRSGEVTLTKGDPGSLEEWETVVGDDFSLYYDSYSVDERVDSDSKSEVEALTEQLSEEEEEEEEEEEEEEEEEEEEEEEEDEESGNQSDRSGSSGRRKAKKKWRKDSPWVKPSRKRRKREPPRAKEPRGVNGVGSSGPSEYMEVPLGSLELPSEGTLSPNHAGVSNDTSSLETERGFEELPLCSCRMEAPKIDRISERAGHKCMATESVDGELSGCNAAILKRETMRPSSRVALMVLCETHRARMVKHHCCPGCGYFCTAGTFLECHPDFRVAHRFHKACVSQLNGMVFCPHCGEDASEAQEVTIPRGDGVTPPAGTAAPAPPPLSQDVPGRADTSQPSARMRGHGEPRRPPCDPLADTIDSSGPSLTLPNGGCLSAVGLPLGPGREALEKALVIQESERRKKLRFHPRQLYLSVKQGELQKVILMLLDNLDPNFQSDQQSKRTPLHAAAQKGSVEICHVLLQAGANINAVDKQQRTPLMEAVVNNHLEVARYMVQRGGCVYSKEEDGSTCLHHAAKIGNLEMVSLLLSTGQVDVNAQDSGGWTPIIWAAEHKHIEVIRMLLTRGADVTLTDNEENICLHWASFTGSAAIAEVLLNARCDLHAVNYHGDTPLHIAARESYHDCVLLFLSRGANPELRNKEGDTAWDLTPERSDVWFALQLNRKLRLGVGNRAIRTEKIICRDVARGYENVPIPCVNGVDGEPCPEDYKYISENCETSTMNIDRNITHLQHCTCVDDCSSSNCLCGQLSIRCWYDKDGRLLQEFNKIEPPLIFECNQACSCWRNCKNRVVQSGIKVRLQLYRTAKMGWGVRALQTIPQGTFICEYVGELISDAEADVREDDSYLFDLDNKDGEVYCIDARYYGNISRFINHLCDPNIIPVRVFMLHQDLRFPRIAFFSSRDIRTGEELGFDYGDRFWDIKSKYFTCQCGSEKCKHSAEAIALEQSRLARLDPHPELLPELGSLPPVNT

| Compound | Potency | activity, negative = inhibition |
| --- | --- | --- |
| CC(Cl)C(=O)NC(=O)NC12CC3CC(CC(C3)C1)C2 (centres undefined) | inconclusive: 79.4 µM [inhibitor, single point] | – |
| COC(=O)C(Cc1ccccc1)P(=O)(c1ccccc1)c1ccccc1 (centres undefined) | – | inactive: -5.54% [at 102 µM] |
| S=C(NCc1ccco1)N1CCN(C(c2ccccc2)c2ccccc2)CC1 | inconclusive: 50.1 µM [inhibitor, single point] | – |
| Cc1ccc(CN2CC(C(=O)Nc3cccc(S(=O)(=O)N4CCCCC4)c3)CC2=O)cc1 (centres undefined) | inconclusive: 89.1 µM [inhibitor, single point] | – |
| CC(C)(C)c1ccc(C(=O)Nc2ccc(-c3nc4cc(Cl)ccc4o3)cc2)cc1 | – | inactive: 7.19% |
| Cc1occc1C(=O)Nc1ccccc1C(=O)O | inconclusive: 6.31 µM [inhibitor, single point] | – |
| CC1(C)CC(=O)C(C(=O)Cc2ccccc2[N+](=O)[O-])C(=O)C1 | inconclusive: 15.8 µM [inhibitor, single point] | – |
| CC(C(=O)Nc1ccc2c(c1)OCO2)N1CCC(N2CCCCC2)CC1 (centres undefined) | inconclusive: 3.98 µM [inhibitor, single point] | – |
| CCN(c1ccccc1)S(=O)(=O)c1nnc(NC(=O)COc2ccccc2F)s1 | inconclusive: 1.58 µM [inhibitor, full curve, poor fit] | – |
| Cc1cccc(NC(=O)COc2cccc3c2CCN(C)C3=O)c1 | inconclusive: 12.6 µM [inhibitor, partial curve, poor fit] | – |
| NS(=O)(=O)c1ccc(NC(=S)N2CCN(Cc3ccc(Cl)c(Cl)c3)CC2)cc1 | inconclusive: 39.8 µM [inhibitor, partial curve] | – |
| CCOC(=O)c1c(C)n(C)c2ccc(OCC(O)CN3CCC(C)CC3)cc12 (centres undefined) | inconclusive: 89.1 µM [inhibitor, single point] | – |
| CC(=O)Nc1ccccc1-c1nc2ccccc2n(C(C)C(=O)c2ccc(C)c(C)c2)c1=O (centres undefined) | inconclusive: 17.8 µM [inhibitor, partial curve, poor fit] | – |
| COc1ccc(/C=C2\CCCc3c2nc2ccccc2c3C(=O)O)cc1OC | active: 28.2 µM | – |
| FC(F)(F)c1cnc(C(c2ccccc2)c2ncn[nH]2)c(Cl)c1 (centres undefined) | – | inconclusive: -58.8% [inhibitor] |
| C[C@H]1CN=C(N(C)C)N1CCC1CCCCC1 | – | inactive: 7.09% [at 2.33 µM] |
| CCC(C)n1c(-c2cccc(S(=O)(=O)N3CCOCC3)c2)n[nH]c1=S (centres undefined) | active: 3.16 µM | – |
| CC(=O)Nc1ccc(S(=O)(=O)Nc2ccc3c(c2)n(C)c(=O)n3C)c(C)c1 | inactive | – |
| COc1ccc(/C=N/NC(=O)c2nnn(-c3nonc3N)c2-c2cccc(OC)c2)cc1 | – | inactive: 20.9% [at 102 µM] |
| CC(=O)O[C@@]1(C(C)=O)CCC2C3C=C(Cl)C4=CC(=O)C5CC5[C@@]4(C)C3CC[C@]21C (some centres undefined) | – | inactive: 4.98% [at 2.33 µM] |
| O=C(CCS(=O)(=O)c1ccccc1)N(CCCN1CCOCC1)c1nc2ccccc2s1 | active: 39.8 µM | – |
| CC(=O)N1CCC(C(=O)OCc2ccc(Cl)cc2)(c2ccccc2)CC1 | inconclusive: 89.1 µM [inhibitor, single point] | – |
| COc1cc(C(=O)NC(=S)Nc2ccc3oc(=O)ccc3c2)cc(OC)c1OC | inconclusive: 79.4 µM [inhibitor, single point] | – |

| Compound | Potency | activity, negative = inhibition |
| --- | --- | --- |
| Cc1ccc(NC(=O)CN(C)S(=O)(=O)c2cccc3nsnc23)c(C)c1 | inconclusive: 12.6 µM [inhibitor, partial curve, poor fit] | – |
| COc1cc(C2C(=O)N(C3CCC(C)CC3)CC(=O)N2CCc2ccc(Cl)cc2)ccc1OC(C)C (centres undefined) | – | inactive: 11.9% |
| COc1cccc(-c2nccc(N(C)Cc3ccco3)n2)c1 | – | inactive: 5.07% [at 0.501 µM] |
| Cc1[nH][nH]c(=O)c1C(c1c(C)[nH][nH]c1=O)c1cn(Cc2ccccc2Cl)c2ccccc12 | active: 14.1 µM | – |
| COc1ccc(-c2[nH]ncc2C(=O)NCc2ccccc2OC)cc1 | – | inactive: 14% |
| CC1CN(C)C(C)c2c1oc1ccc(N)cc21 (centres undefined) | inconclusive: 50.1 µM [inhibitor, partial curve] | – |
| COc1ccc(CCCc2nnc(SCC(=O)NN)o2)c(C)c1 | – | inactive: 30.6% [at 102 µM] |
| CCCn1c(=N)n(CC(=O)c2ccc(Cl)c(Cl)c2)c2ccccc21 | inconclusive: 89.1 µM [inhibitor, single point] | – |
| COc1nc(Oc2ccc(=O)n(-c3ccccc3)n2)nc(N(C)C)n1 | inconclusive: 0.891 µM [inhibitor, partial curve, poor fit] | – |
| COc1ccc(-n2c(=S)[nH]c3sc4c(c3c2=O)CCN(C)C4)cc1 | active: 14.1 µM | – |
| CCC(C)(C)c1ccc(Oc2cccc(C(=O)O)c2)cc1 | – | inactive: 6.88% [at 102 µM] |
| Oc1c(Cl)cc(Cl)cc1C1Nc2ccccc2-n2cccc21 (centres undefined) | inconclusive: 70.8 µM [inhibitor, partial curve] | – |
| O=c1c2ccccc2oc2cc(OCc3cccc(F)c3)cc(O)c12 | inconclusive: 89.1 µM [inhibitor, single point] | – |
| COC(=O)CCNC(=O)c1nn(Cc2ccccc2)c(=O)c2ccccc12 | – | inactive: 13.4% [at 102 µM] |
| O=C(COc1ccc(/C=N/NC(=O)CSCc2ccc([N+](=O)[O-])cc2)cc1)NCc1ccco1 | inconclusive: 14.1 µM [inhibitor, partial curve, poor fit] | – |
| Cc1cc(S(=O)(=O)NCC(c2ccc(F)cc2)N2CCN(C)CC2)ccc1F (centres undefined) | inconclusive: 89.1 µM [inhibitor, single point] | – |
| CN1/C(=C/C=C(/C#N)C(N)=O)C(C)(C)c2ccccc21 | inconclusive: 79.4 µM [inhibitor, single point] | – |
| CCOC(=O)c1ccc(NC(=O)COc2ccc(S(=O)(=O)N3CCCC3)cc2)cc1 | inconclusive: 39.8 µM [inhibitor, single point] | – |
| CC(Oc1cccc(Cl)c1)C(=O)Nc1ccc(S(=O)(=O)Nc2ncccn2)cc1 (centres undefined) | active: 35.5 µM | – |
| COc1ccc(CCNC(=O)C(=O)Nc2nccs2)cc1OC | – | inconclusive: -125% [inhibitor] |
| CCOc1ccc2c(c1)C(N(CCN1CCOCC1)C(=S)Nc1ccccc1OC)CC(C)(C)O2 (centres undefined) | inconclusive: 50.1 µM [inhibitor, partial curve] | – |
| CCCc1nnc(NC(=O)CS(=O)(=O)c2ccccc2)s1 | inconclusive: 89.1 µM [inhibitor, single point] | – |
| Cc1sc2ncn(CC(=O)NCc3ccco3)c(=O)c2c1-c1ccc(F)cc1 | inconclusive: 89.1 µM [inhibitor, single point] | – |

| Compound | Potency | activity, negative = inhibition |
| --- | --- | --- |
| Cc1ccc(NC(=O)C2CC(Cl)=CCC2C(=O)O)c([N+](=O)[O-])c1 (centres undefined) | inconclusive: 0.282 µM [inhibitor, partial curve, poor fit] | – |
| COc1cccc(C(=O)NC(=S)Nc2ccc(Cl)cc2C(=O)O)c1 | inconclusive: 39.8 µM [inhibitor, single point] | – |
| CN(C)c1ncnc2ccc(-c3ccccc3C(F)(F)F)cc12 | – | inactive: 6.71% [at 0.501 µM] |
| CC(C)C1NC2(C(=O)c3ccccc3C2=O)C2C(=O)N(c3ccc(F)cc3)C(=O)C12 (centres undefined) | inconclusive: 2.51 µM [inhibitor, full curve, poor fit] | – |
| COc1ccc(C(=O)NCc2ccc3c(c2)cc(C)n3C)cc1OC | inconclusive: 50.1 µM [inhibitor, partial curve] | – |
| Cc1cc(/C=N/N2CCN(C)CC2)c(C)n1-c1ccccc1F | inconclusive: 50.1 µM [inhibitor, partial curve, poor fit] | – |
| COc1ccc(-c2csc(NC(=O)Cc3cccc4ccccc34)c2C(=O)O)cc1 | – | inactive: -45.6% [at 102 µM] |
| O=C(NCCCN1CCOCC1)c1ccc2c(c1)N(Cc1ccccc1)CCS2 | – | inactive: 0.441% [at 12.7 µM] |
| COc1ccc(CNC(=O)[C@H](C)N2C(=O)N3CCc4c([nH]c5ccccc45)[C@@]3(C)C2=O)cc1OC | – | inactive: 1.73% [at 102 µM] |
| Cc1cccc(Nc2nc3ccccc3n3c(N)nnc23)c1 | – | inactive: -39.4% |
| CN(C)S(=O)(=O)c1ccc(N2CCCC2)c(C(=O)Nc2ccc(N3CCOCC3)cc2)c1 | inconclusive: 89.1 µM [inhibitor, single point] | – |
| O=C(Nc1ccccc1NS(=O)(=O)c1ccc(F)cc1)C1CCC1 | – | inactive: 14.1% [at 0.0925 µM] |
| CCCC(C(=O)O)N1C(=O)/C(=C/c2cccn2C)SC1=S (centres undefined) | – | inactive: -38% |
| CC(=O)Nc1ccc(S(=O)(=O)NNC(=O)c2cccc([N+](=O)[O-])c2)cc1 | inconclusive: 89.1 µM [inhibitor, single point] | – |
| Cc1occc1C(=O)NNC(=S)Nc1ccccc1 | inconclusive: 56.2 µM [inhibitor, partial curve, poor fit] | – |
| O=C(O)c1ccnc(C(=O)O)c1 | inconclusive: 1.41 µM [inhibitor, single point] | – |
| CSc1ccc(C(=S)N2CCCC2)cc1 | active: 31.6 µM | – |
| Clc1ccc(Sc2ccc(/C=N/n3cnnc3)o2)cc1 | inconclusive: 50.1 µM [inhibitor, partial curve, poor fit] | – |
| COC(=O)N/N=C/c1cc([N+](=O)[O-])cc(Br)c1O | – | inactive: 4.21% |
| C[N+](C)(C)CCCC(=O)c1ccc2c(c1)OCO2 | inconclusive: 25.1 µM [inhibitor, single point] | – |
| Cc1ccc(S(=O)(=O)N2CCN(CC(=O)N/N=C/c3ccc(C)o3)CC2)cc1 | inconclusive: 79.4 µM [inhibitor, single point] | – |
| O=C1c2ccccc2CC1Sc1nnc(-c2ccncc2)o1 (centres undefined) | inconclusive: 3.16 µM [inhibitor, single point] | – |
| O=C(Nc1ccccc1C(=O)N1CCCCCC1)c1ccc(Cl)cc1 | – | inactive: 7.2% |

Reference: PubChem BioAssay AID504332 (National Center for Advancing Translational Sciences (NCATS), 2011)
